# Screen size: about 150,000 compounds; about 180 (0.12%) were called active. This list was built around the results that the source calls inconclusive (neither active nor inactive); the mix of calls is not that of the screen. Calls follow the shape of the dose curve; as a rule, active = well fitted cell-killing curve with a large enough effect; inconclusive = small, poorly fitted or top-dose-only effect, or effect the other way; inactive = flat fitted curve, though single readings scatter. Potencies beside an inconclusive call are fits to weak or partial responses and may not hold up.
# Assay: GF-AFC viability counterscreen for inhibitors of alpha-synuclein gene (SNCA) expression; also: nearly all actives have a fitted effect of over 30% in size
# Conditions: HEK-293-SNCA-luc viability, GF-AFC fluorescence, 24 h; activity change, negative = cytotoxicity: at 57.1 µM (top of the series) unless noted
# From the text: Assay Submitter (PI): Daniel R. Scoles Ph.D.
# Department of Neurology, University of Utah, Salt Lake City, Utah
# Accumulation of alpha-synuclein is a main underlying pathological feature of Parkinson's disease (PD) and alpha-synucleinopathies, for which lowering expression of the alpha-synuclein gene (SNCA) is a potential therapeutic avenue. Using a cell-based luciferase reporter of SNCA expression we performed a quantitative high throughput screen (qHTS) of 155,885 compounds in dose response. The screening assay was generated using genome editing to insert the luciferase gene downstream and in frame of the SNCA gene in HEK-293 cells (1). A viability counterscreen using GF-AFC was used to eliminate cytotoxic and false positive compounds. After in silico analysis (clustering, removal of frequent hitter nuisance chemotypes), inhibitor compounds from the primary screen were selected for follow up and re-tested at 11-doses in the SNCA-luc cells (luciferase and GF-AFC confirmation), and in CMV-luc expressing cell line to flag general transcriptional repressors.
# Described herein are the results of the GF-AFC viability counterscreen for SNCA inhibitors; inactivity (no decrease in fluorescence signal, not cytotoxic) is the desired output for this assay.
# 1. Dansithong, W., Paul, S., Scoles, D. R., Pulst, S. M., and Huynh, D. P. (2015) Generation of SNCA Cell Models Using Zinc Finger Nuclease (ZFN) Technology for Efficient High-Throughput Drug Screening. PLoS ONE 10, e0136930.
# SEQUENCE No. (e.g., 1, 2, 3, etc.); […] (e.g., Cells, Incubation, Reagent, etc.); VALUE; DESCRIPTION
# 1; Cells; 4 uL; Dispense 1500 HEK-293-SNCA-luc cells/well into Greiner 1536-well white / solid bottom tissue culture treated plate. The plate was covered with metal lids with gas-exchange holes.
# 2; Incubate; 24 hours; Incubate at 37C, 5% CO2, 95% RH.
# 3; Compounds; 23 nL; Compounds and controls were transferred via a Kalypsys Pin Tool (Wako USA) equipped with a 1536-slotted pin array. The plate was covered with metal lids with gas-exchange holes.
# 4; Incubate; 24 hours; Incubate at 37C, 5% CO2, 95% RH.
# 5; Dispense; 1 uL; Dispense Gly-Phe-7-amino-4-trifluoromethylcoumarin (GF-AFC, prepared at 125 uM in PBS) was added. The plate was covered with metal lids with gas-exchange holes.
# 6; Incubate; 30 min; Incubate at 37C, 5% CO2.
# 7; Detector; Fluorescence; Measure fluorescence with ViewLux microplate reader (PerkinElmer) equipped with 405/10 excitation and 540/25 emission filters.
# 8; Dispense; 3 uL; Dispense ONE-Glo ([…]) lucifase detection reagent was added to each well. Plates were covered with metal lids with gas-exchange holes.
# 9; Incubate; 15 min; Incubate at room temperature.
# 10; Detector; Luminescence; Measure luminescence with ViewLux microplate reader (PerkinElmer) equipped with clear filters.
# NOTES (numbers refer to sequence above)
# 1; HEK-293-SNCA-luc were cultured and suspended in phenol-red free DMEM (4.5 g/L glucose, 25 mM HEPES, cat #21063 (Thermo)).
# 3; Compounds were added to the assay plate in an 11-point intra plate dose response, 1:3 titration in DMSO with a final concentration range of […]. Vehicle-only plates, with DMSO being pin-transferred to every well, were inserted at the beginning of screening runs to confirm expected assay performance. Activity was normalized to wells containing medium only (-100% activity, full inhibition) and SNCA-luc cells treated with DMSO vehicle control (0% activity), contained on the same plate as test samples.
# 10; Signals were analyzed, and dose-response curves were fit using the Hill equation. Compounds in curve classes -1.1, -1.2, -2.1, -2.2 in the SNCA-luc assay were considered active. Compounds were eliminated from further consideration if also active (curve class -1.1, -1.2, -1.3, -1.4, -2.1, -2.2, -2.3, -2.4) in the GF-AFC cytotoxicity assay.
# Potency is read from the fitted curve at half-maximal effect; tags tell the direction and shape of the fitted curve.
Structure (SMILES),Potency,"activity change, negative = cytotoxicity"
C[C@]1(CO)CN(c2cc(C(=O)Nc3ccc4c(c3)-c3c(c(C(N)=O)nn3-c3ccc(F)cc3)CC4)c(Cl)cn2)C[C@@]1(C)CO,"inconclusive: 13.6 µM [cytotoxic, full curve]",
CCc1ccc(NC(=O)Cn2c(-c3ccccc3)nc(C)c(CCO)c2=O)cc1,"inconclusive: 35.5 µM [cytotoxic, single point]",
CN(C)c1cccc(C(=O)NC2CCCN(c3cc(-c4ccc(Cl)cc4)[nH]n3)C2)c1 (configuration not stated),"inconclusive: 39.8 µM [cytotoxic, partial curve, poor fit]",
CCOc1ccc(-c2cc3c(=O)n(CCNC(=O)c4ccccc4OC)ccn3n2)cc1,"inconclusive: 31.6 µM [cytotoxic, single point]",
CCc1ccc(C(=O)N2[C@@H]3CC[C@H]2CC(NC(=O)c2ccncc2)C3)cc1 (some centres not stated),,inactive: -11.2%
Cc1ccccc1OCC(=O)NC1CCN(c2cc(-c3ccccc3)[nH]n2)CC1,,inactive: -27.7%
COc1ccc(C(=O)Nc2nnc(SCc3cc(=O)c4cccc(F)c4[nH]3)s2)cc1,"inconclusive: 25.1 µM [rising, partial curve, poor fit]",
Cc1cc(C)c(OCC(=O)N(Cc2ccc(N(C)C)cc2)CC2CCCO2)c(C)c1 (configuration not stated),"inconclusive: 10 µM [cytotoxic, partial curve, poor fit]",
CC1=C[C@@H](CNC(=O)C2CCCCC2)[C@H](C(C)C)C[C@H]1Cc1nc2c(C)cccc2[nH]1,"inconclusive: 28.2 µM [cytotoxic, single point]",
Fc1ccc(OC2CN(Cc3ccccc3)C2)cc1F,,inactive: 5.56% [at 87.6 µM]
C=C(NC(=O)C(=C)NC(=O)c1csc(C2=NC3c4csc(n4)C4NC(=O)c5csc(n5)C(C(C)(O)C(C)O)NC(=O)C5CSC(=N5)/C(=C/C)NC(=O)C(C(C)O)NC(=O)c5csc(n5)C3(CC2)NC(=O)C(C)NC(=O)C(=C)NC(=O)C(C)NC(=O)C(C(C)CC)NC2C=Cc3c(C(C)O)cc(nc3C2O)C(=O)OC4C)n1)C(N)=O (configuration not stated),"inconclusive: 5.32 µM [cytotoxic, partial curve, poor fit]",
CC(=O)NCCNc1nc(-c2ccccc2Cl)nc2ccccc12,"inconclusive: 22.4 µM [cytotoxic, partial curve, poor fit]",
CCCc1nnsc1C(=O)N[C@@H]1COCC[C@@H]1OCC1CC1,,inactive: -10.9%
COc1ccc(-n2c(=O)c(-c3cccs3)nc3cnc(OC)nc32)cc1,"inconclusive: 31.6 µM [rising, single point]",
CCc1ccc(CNC(=O)C2CCN(C(=O)c3ncn4c3COC(c3ccccc3)C4)CC2)cc1 (configuration not stated),,inactive: 5.8%
CCN(CC)CCOc1ccc(C(=C(Cl)c2ccccc2)c2ccccc2)cc1,,inactive: 1.59%
CC(C)c1ccc(NC(=O)C2CCN(C(=O)c3ncn4c3COC(c3ccccc3)C4)CC2)cc1 (configuration not stated),,inactive: 1.88%
Cc1nnc(N2CCCC(C(=O)NCCN(C)C)C2)c2nn(-c3ccccc3)c(C)c12 (configuration not stated),"inconclusive: 15.8 µM [cytotoxic, partial curve, poor fit]",
COc1ccc(-c2nc3sc(CCNC(=O)Cc4ccc(F)cc4)c(C)n3n2)cc1,"inconclusive: 39.8 µM [cytotoxic, single point]",
Cn1ncc2c(C(=O)Nc3cccc(Cl)c3)cc(C(C)(C)C)nc21,,inactive: -11% [at 87.6 µM]
O=C(NCC1CCCO1)c1ccnc(-c2nnc3ccc(Nc4ccccc4)nn23)c1 (configuration not stated),,inactive: -5.96% [at 87.6 µM]

Structure (SMILES),Potency,"activity change, negative = cytotoxicity"
CC(=O)N1CCC(Cc2ccc(C(=O)NCc3cn[nH]c3C)cc2)CC1,"inconclusive: 3.16 µM [cytotoxic, partial curve, poor fit]",
CC(=O)N1CCN(C(=O)C2CCN(c3nccc(Nc4ccccc4Cl)n3)CC2)CC1,,inactive: -9.29% [at 12.5 µM]
Cn1cc(-c2cccc(CO)c2)c2nc(COc3ccc(Cl)cc3)cn2c1=O,"inconclusive: 5.01 µM [cytotoxic, full curve, poor fit]",
Cc1cc(C(=O)N(C)CC2CCCN(CCc3ccccc3F)C2)n[nH]1 (configuration not stated),,inactive: -0.975%
CCc1nn(-c2ccc(OC)cc2)c(Oc2ccccc2F)c1CCC(=O)N1CCSCC1,,inactive: -9.87%
COC(=O)CSc1nc2sc3c(c2c(=O)n1-c1ccc(C)cc1)CC(C(C)C)OC3 (configuration not stated),"inconclusive: 11.2 µM [rising, partial curve]",
CCC(=O)N1CCC(O)(c2ccccc2)[C@H](N2CCCC2)C1 (some centres not stated),,inactive: -3.94%
Cc1nc(C(=O)N2CCOc3c(O)cc(-c4cccc(Cl)c4)cc3C2)cs1,"inconclusive: 22.4 µM [cytotoxic, single point]",
Cc1cnc(Nc2ccc(F)cc2Cl)nc1-c1c[nH]c(C(=O)N[C@H](CO)c2cccc(Cl)c2)c1,"inconclusive: 29.9 µM [cytotoxic, partial curve, poor fit]",
CCC1(C(=O)NCc2ccc(Cl)cc2)CCCCC(=O)N1 (configuration not stated),,inactive: -0.863%
Cc1ccccc1-c1[nH]nc2ncc(-c3ccsc3)nc12,,inactive: -23.2% [at 87.6 µM]
CC1=C[C@@H](CN2C(=O)C(C)=C(C)C2=O)[C@H](C(C)C)C[C@H]1Cc1nc2ccccc2[nH]1,"inconclusive: 31.6 µM [cytotoxic, partial curve, poor fit]",
CCCCS(=O)(=O)c1oc(-c2cccs2)nc1S(=O)(=O)c1ccc(F)cc1,"inconclusive: 25.1 µM [cytotoxic, partial curve, poor fit]",
Cc1oc(-c2ccc(OC(C)C)cc2)nc1Cn1ccn2nc3c(c2c1=O)CCCC3,,inactive: -6.17%
COc1ccc(N2CCOCC2)c2sc(NC(=O)N3CCC(C)(O)CC3)nc12,,inconclusive: 42.6%
CSc1nc(-c2ccccc2Cl)nc2c1Cc1c(CO)cnc(C)c1O2,"inconclusive: 39.8 µM [cytotoxic, single point]",
Cc1ccc(S(=O)(=O)N(C)C2CCOc3ccccc32)cc1 (configuration not stated),,inactive: -7.59% [at 87.6 µM]
CC1CN(C(=O)C2CCN(c3nc(-c4ccccc4)nc4c3CCC4)CC2)CCN1 (configuration not stated),"inconclusive: 28.2 µM [cytotoxic, partial curve, poor fit]",
CC(C)(Oc1nn(Cc2cccc(Cl)c2)c2ccccc12)C(=O)NCCN1CCOCC1,,inactive: -11.4%
Cc1cc(C)cc(C(=O)N2[C@@H]3CC[C@H]2CC(NC(=O)c2ccc(F)cc2)C3)c1 (some centres not stated),,inactive: -7.23%
O=C(Nc1nc2n(n1)C(c1ccccc1)C=C(c1ccccc1)N2)c1ccccc1 (configuration not stated),"inconclusive: 35.5 µM [rising, single point]",

Structure (SMILES),Potency,"activity change, negative = cytotoxicity"
O=C(Nc1ccc(C(=O)N2CCCCC2)cc1)c1nsc2ccccc12,,inactive: -19.5%
COc1ncc(-c2ccc3nccc(-c4ccnnc4)c3c2)cc1NS(=O)(=O)c1ccc(F)cc1F,"inconclusive: 0.0019 µM [cytotoxic, full curve, poor fit]",
COCCn1c(C)cc(C(=O)NCC(=O)N2CCCCCNC(=O)CC2c2ccccc2)c1C (configuration not stated),"inconclusive: 8.91 µM [cytotoxic, partial curve, poor fit]",
Cn1ncc2c(C(=O)NCc3ccc(F)c(F)c3)cc(-c3ccsc3)nc21,"inconclusive: 39.8 µM [cytotoxic, single point]",
Cc1ccc(NC(=O)CN2C(=O)COc3ccc(S(=O)(=O)N4CCCCCC4)cc32)cc1Cl,"inconclusive: 20 µM [cytotoxic, partial curve, poor fit]",
O=C(c1csc(Cc2ccccc2)n1)N1CCC2(CCNCC2)CC1,"inconclusive: 22.4 µM [cytotoxic, partial curve]",
CCc1ccccc1NC(=O)Cn1cccc1-c1nc(-c2ccc(OC)c(F)c2)no1,"inconclusive: 39.8 µM [cytotoxic, single point]",
CCCCn1c(=NC(=O)C(C)(C)Oc2ccc(Cl)cc2)c(C(=O)OCC)cc2c(=O)n3ccccc3nc21,"inconclusive: 3.55 µM [rising, partial curve, poor fit]",
CN(C)C(=O)c1cccn2nccc12,,inactive: 1.78% [at 87.6 µM]
COc1ccc(-c2nc(C3CC3)nc3c2CCN([S+](=O)([O-])c2c(C)noc2C)CC3)cc1,"inconclusive: 7.08 µM [cytotoxic, partial curve, poor fit]",
CCOc1cc(C2C(C(=O)OC)=C(C)NC3=C2C(=O)c2ccccc23)ccc1OC (configuration not stated),"inconclusive: 11.2 µM [cytotoxic, partial curve, poor fit]",
COc1ccc(C(=O)CC2(O)C(=O)N(CCc3ccccc3)c3ccc(Br)cc32)cc1OC (configuration not stated),"inconclusive: 28.2 µM [cytotoxic, single point]",
CCC(CC)NC(=O)[C@H]1CCC[C@H]1NC(=O)c1ccc(OC)cc1,"inconclusive: 7.08 µM [cytotoxic, single point]",
CCCN(CC1CCOC1)S(=O)(=O)c1ccc2c(c1)CCCC2 (configuration not stated),"inconclusive: 8.91 µM [cytotoxic, full curve, poor fit]",
CN(C(=O)CSc1nc2ccc(NC(=O)c3ccccc3)cc2s1)c1ccccc1,"inconclusive: 10 µM [cytotoxic, partial curve, poor fit]",
CCc1ccc(N2CC(c3nc4ccccc4n3Cc3ccccc3C)CC2=O)cc1 (configuration not stated),"inconclusive: 28.2 µM [cytotoxic, single point]",
CCN1c2cc(C(=O)NCc3ccc(F)c(Cl)c3)ccc2C(=O)N2CCCCCC21 (configuration not stated),"inconclusive: 3.16 µM [rising, single point]",
COC(=O)Cc1c(C)c2ccc3c(c2oc1=O)CN(Cc1ccc(C)cc1)CO3,"inconclusive: 35.5 µM [rising, single point]",
O=C(c1ccccc1)N1CCC(C(=O)N2CCC(c3nc4ncccc4[nH]3)CC2)CC1,,inactive: -4.06%
COc1cccc(/C=C/c2nc(C#N)c(N3CCCCCC3)o2)c1,"inconclusive: 28.2 µM [rising, partial curve, poor fit]",
